Test results: the supplement of paper PMC11417369
This is one part of the list.

System: PF3D7_0420300 AP2 domain 1 (GST-tagged)
Assay: gcPBM binding intensity (ln(normalized median fluorescence intensity)); higher = stronger DNA binding
Outline: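 Each value is the highest Masliner-normalised natural-log median intensity across replicate spots of either orientation of a probe. The probes were primer-extended double-stranded 36-bp intergenic genomic sequences on an Agilent 4 × 180k array, alongside negative controls, exposed for 1 h to GST-tagged P. falciparum DNA-binding domains expressed in E. coli. Bound protein was picked up with Alexa488 anti-GST antibody and scanned at 488 nm.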

Point of comparison: “AGAAATAAGAAATATACACACATATATATATATATA [CACACA_site2808]”, “gcPBM binding intensity (ln)” value 9.24. Against it:
- AAGAAAAAAAAAAAAACACACATATATATATATATA [CACACA_site2027] — higher, 9.46
- AAATAAATAAATAGACGTACAAAAATATTATACATT [XGTACX_site6776] — higher, 9.46
- AATAATGAAAAAATGAATAAAATTACTATATAATTC [XGTACX_negctrl_site457] — lower, 9.01
- GATATGATGTGTTTGGTAGTTTTTGATGTTGGCATG [GTGCAC_negctrl_site506] — higher, 9.42
- TATAAATGTGTATGCGCATGTAAAAATATAATTTAT [TGCATGCA_site750] — higher, 9.36
- GTAAATAATAAACACCGTACATGGTATAATTCAATG [XGTACX_site3655] — higher, 9.49
- TGTACGAGTCGTAGAGTGCAGTCTGGAGAAAAGTAC [GTGCAC_site9683] — lower, 9.19
- TATATATATATATATACACACTTGTGCAGAATATTA [CACACA_site5257] — higher, 9.27
- CCACAGGATTGGTTCAAACACACATATTATATGACT [CACACA_site661] — higher, 9.39
- TATTTTTTTTTTTTTTGTACACATAATTGTAATCGT [XGTACX_site8415] — higher, 9.25
- CATATAAAAATGTGCACACACACACCGATATATATT [CACACA_site4940] — higher, 10.1
- TCACTTTTTATTAAATGTACATGCTTTCATTTTCAT [XGTACX_site8139] — higher, 9.35
- TATATATATATATATGTACACACATCAATCATATTA [CACACA_site8594] — higher, 9.33
- GAATAAATAATTAACACACACAATCTTTTTTTTTTT [CACACA_site3140] — higher, 9.69
- AAAAAAAAAATAAAATAAAATATATTATATATATTA [GTGCAC_negctrl_site431] — lower, 8.9
- TGAACAATGTATAATTGTACGCAACGAAAATAAAAA [XGTACX_site1559] — higher, 9.31
- ATCATGTTATATATGTGTACATATATATGATATAAT [XGTACX_site991] — lower, 9.15
- ATTATAAATTAAAATACACACATATATACCTAATAT [CACACA_site5541] — higher, 9.74
- ATATATAATTACACAAATAAAAAAATAAAATGAAAT [CACACA_negctrl_site1513] — higher, 9.58
- AGAATAAAAATACAAGCACACATGTATGAAATATAT [CACACA_site3213] — higher, 9.79
- TTTTGTTATGAGAGGGTGCTAATATTTGGATATAAA — higher, 9.26
- AAAAAAAGAAAAATTGCACACACTTATAAAAATATA [CACACA_site4014] — higher, 9.55
- AAAAAAAAAAAAAGTAGTACATAATATGTTCCTCCT [XGTACX_site8356] — lower, 9.06
- TCTTATTAAAATATTTATATAGGTAATCACAATATT [GTGCAC_negctrl_site568] — lower, 9.04
- TATAAAATAAGACATGCATGTTATACATATATATAT [TGCATGCA_site314] — higher, 9.32
- TATTTTTTTCTTACTACACACATATATATGCTTTCC [CACACA_site4058] — higher, 9.68
- AATGGAAAAAAAAAAATAAATACAAATAAATACAAA [GTGCAC_negctrl_site407] — higher, 9.45
- TCATTAATATTTCATAGTACAATTTTGTCTAATTGT [XGTACX_site6720] — lower, 9.22
- TTATATTATACATACACACCCATATAACATGTTTTT [CACACA_site6539] — higher, 9.61
- AAGGAATATGTATATACACACAGGTACATATATATA [CACACA_site441] — higher, 9.64
- AAAAAATAATAATAATGTACAAATAAAATAAAAACA [XGTACX_site6568] — higher, 9.73
- ATAAAAATTGAAACATGTACACATATTCATTTTATA [XGTACX_site7968] — lower, 9.14
- TCGTGTGAAAATATTACACACATTTACTATAGTATC [CACACA_site7590] — higher, 9.48
- ATATATTTTTACCATACACACATATAATAAATATAT [CACACA_site3722] — higher, 9.52
- AAAAAAAAAAAAAAATGTACATATATATATATATAT [XGTACX_site876] — lower, 9.15
- ACATATACAAGACACACACACAACGTTTTAATAAAT [CACACA_site7017] — higher, 10.2
- ATAATAATATTGTGTACACAATAATTTGTCAAATCA [CACACA_site6019] — lower, 9.06
- GTATATTTTAATATGACACACATATTATATATATAT [CACACA_site2483] — higher, 9.4
- AATCAATTAATATTAGCATAAAATTTTATTATTTTG [XGTACX_negctrl_site479] — lower, 9.19
- TGACATAAAAAATATACACACTATAATATATATACT [CACACA_site4898] — higher, 9.43
- ATAATATGTATGGTCACACAGACAAGGAAAGAATAA [CACACA_site5164] — higher, 9.45
- TGTATCCATATTTGTTCACACACACCCATATTTATA [CACACA_site9190] — higher, 10
- ATTGTTATTTATTGTGTGCGCATTAATACATACATA [GTGCAC_site9982] — higher, 9.5
